Several values for one entry are separate records, joined by “and”; a condition that tells them apart may be missing. Identical values can stand only once.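 Each compound was tested at five concentrations against cells in 96-well plates for 48 hours. GI50 = concentration required for 50% inhibition of growth. At the TGI there is no net growth.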 Peptide text beside a SMILES is read from it. * marks the point of attachment. Cbz = O=C(OCc1ccccc1)*; Boc = CC(C)(C)OC(=O)*; OSu = O=C1CCC(=O)N1O*; Bn = c1ccc(C*)cc1 A value given as a limit tells only on which side of the number the result lay.

The test system of this experiment is NCI-H322M lung. The experiment is described as follows: DTP human tumour cell line panel, 48 h.
The GI50 is the concentration at which growth is held to half of that of the control. The TGI is the concentration at which net growth stops. Low readings indicate greater sensitivity of the cells, high ones lower sensitivity of the cells. With `CNCc1cccc2c1OCCOCCOCCC(C)S(=O)(=O)c1ccc(cc1)-c1cnc(N)c(n1)C(=O)N2` (stereo not drawn), the GI50 is 1.59 µM and the TGI was determined as 6.56 µM.
Molecule `CCOC(=O)C1CCC(=O)N1C(=O)c1ccc(Cl)cc1` (stereo not drawn) yielded a TGI above 100 µM.
Molecule `COc1cccc(N=NN2CCCC2)c1` returned a TGI above 100 µM.
The same measure, in the same setting: to `COc1cc2c(cc1OC)C(=O)/C(=C/c1ccc(N(C)C)cc1)CC2` belongs above 10 µM.
For `Cc1ccnc(Nc2ccc([N+](=O)[O-])c(NCCN3CCOCC3)n2)c1`, the GI50 is 0.0505 µM and 0.0463 µM; the total growth inhibition concentration (TGI) came to 69.3 µM.
`Cc1cc(C)nc(NS(=O)(=O)c2ccc(Nc3c4ccccc4nc4ccc(C(=O)Nc5ccc(S(=O)(=O)N=C(N)N)cc5)cc34)cc2)n1` registered a TGI above 100 µM.
`Nc1ccc(C(=O)/C=C/c2ccccc2O)cc1`: the TGI is above 100 µM.
Same read-out and setting: to `Cc1cc(=O)n2nc(CSc3nnc(Sc4cc(O)ccc4O)s3)sc2n1` belongs above 100 µM; to `S=c1[nH]n2c(COc3cc(Cl)c(OCc4nnc5sc(=S)[nH]n45)cc3Cl)nnc2s1`, above 100 µM.
Same read-out and setting: to `Cc1nc(-n2nc(-c3ccccc3)cc2-c2ccccc2)sc1C(=O)/C=C/c1ccccc1` belongs above 100 µM.
As to `NC(=O)c1ncn(C2OC(CO)C(O)C2O)c1N` (stereo not drawn), the GI50 is above 100 µM and the concentration for total growth inhibition (TGI) was above 100 µM.
As to `C/C(=N\NC(=S)N1CCOCC1)c1nc2ncccc2[nH]1`, the concentration for total growth inhibition (TGI) was above 100 µM.
Molecule `COc1cccc(CCCNC(=O)Cc2ccccc2CO)c1` displayed a total growth inhibition concentration (TGI) above 100 µM.
In turn, `c1ccc(-c2c(-c3[nH]c4ccccc4c3-c3ccccc3)[nH]c3ccccc23)cc1` displayed a TGI of 15.9 µM.
In the case of `c1cncc([O][Ge]([O]c2cccnc2)([O]c2cccnc2)[O]c2cccnc2)c1`, the GI50 was above 100 µM and the concentration for total growth inhibition (TGI) is above 100 µM.
`CSc1nc[nH]c1C(N)=S` registered a TGI above 100 µM.
For the molecule `O=C1CNN=C(Cn2nc(-c3ccccc3)c3ccccc3c2=O)N1`, the total growth inhibition concentration (TGI) is above 100 µM.
As to `Nc1ncc(C2[C@H](CNC(=O)c3cc(Br)c[nH]3)C(CNC(=O)c3cc(Br)c[nH]3)[C@@H]2c2cnc(N)[nH]2)[nH]1` (stereo partly drawn), the GI50 is above 50 µM and the TGI was above 50 µM.
Molecule `C/C(CC(=O)Nc1cccc([N+](=O)[O-])c1)=N\NC(=O)C[n+]1ccccc1` gave a total growth inhibition concentration (TGI) above 100 µM.
The same measure, in the same setting: the value for `Cc1ccc(S(=O)(=O)N2CCC(C(=O)O)(c3ccccc3)CC2)cc1` was above 100 µM; that for `C[n+]1c2ccccc2c(C(=O)Nc2ccc(S(=O)(=O)Nc3ncccn3)cc2)c2ccccc21` was above 100 µM; that for `COc1ccc(/C=N/Nc2nnc3c(n2)c2ccccc2c2nn(-c4ccccc4Cl)nc23)cc1` was above 100 µM.
In the case of `NC(N)=N/N=C(/c1ccccc1)c1ccccc1F`, the GI50 was 9.71 µM and the TGI was above 58.8 µM.
`CC(=O)NN(c1ccccc1)C1CCN(c2ccccc2)N1C(C)=O` (stereo not drawn): the concentration for total growth inhibition (TGI) was above 10 µM.
The molecule `CCOC(=O)C1C(c2ccc(OC)cc2)c2c([nH]n(-c3ccccc3)c2=O)CC1(C)O` (stereo not drawn) returned a concentration for total growth inhibition (TGI) above 100 µM.
`CNCc1ccc(-c2[nH]c3cc(F)cc4c3c2CCNC4=O)cc1`: the GI50 is 25.2 µM and the TGI was above 87.6 µM.
On to `O=C(Nc1ccc(C(F)(F)F)cc1[N+](=O)[O-])c1cccnc1`, for which the total growth inhibition concentration (TGI) was above 100 µM.
In the case of `Cc1nc2c(Br)cc(Br)cc2c(=O)n1-c1ccccc1NC1OCC(O)C(O)C1O` (stereo not drawn), the GI50 is 98.9 µM and 38.9 µM; the concentration for total growth inhibition (TGI) is above 100 µM.
Molecule `C=CCN1C(=O)CC(=O)N(NC2=NNC3(C(=O)N2)c2ccccc2-c2ccccc23)C1=S` gave a total growth inhibition concentration (TGI) above 100 µM.
Take `COc1cc(/C=C\c2cc(OC)c(OC)c(OC)c2)cc(NS(=O)(=O)c2ccc(Cl)cc2)c1OC`: the GI50 is 0.759 µM and the TGI is above 100 µM.
With `CC(=O)O[C@H]1C(=O)[C@@]2(C)[C@H]([C@H](OC(=O)c3ccco3)[C@]3(O)C[C@H](OC(=O)[C@H](O)[C@@H](NC(=O)c4ccccc4)c4ccccc4)C(C)=C1C3(C)C)[C@]1(OC(C)=O)CO[C@@H]1C[C@@H]2O`, the TGI is above 25 µM.
Molecule `Cc1nc(Cc2n[nH]c(C)n2)n[nH]1` came in with a total growth inhibition concentration (TGI) above 100 µM.
On the same count and under the same terms, to `O=C(NCc1ccccc1Cl)c1c(O)c2ccccc2[nH]c1=O` belongs above 100 µM; to `COC(=O)C(=O)C(C(=O)C(=O)Nc1ccc(C)c(C)c1)c1nc2ccc([N+](=O)[O-])cc2[nH]c1=O` (stereo not drawn), above 100 µM; to `CN(C)C(=O)Oc1ccc(C(=S)Nc2ccccc2)cc1`, above 100 µM.
`COc1ccc2c(c1)[n+](=O)c(C(C)=O)c(C)n2[O-]` displayed a TGI above 100 µM.
Molecule `CC(C)=Nn1cnc2c1NC(C)(C)N=C2C(N)=O` showed a TGI above 10 µM.
For the molecule `C=C(Cn1c2ccccc2c(=O)c2ccccc21)c1ccc(C(=O)Nc2ccccc2N)cc1`, the GI50 is above 100 µM and the concentration for total growth inhibition (TGI) is above 100 µM.
On to `Cn1c(=O)c2c(nc(N/N=C3/SCC(=O)N3Cc3ccccc3)n2C)n(C)c1=O`, for which the total growth inhibition concentration (TGI) was above 100 µM.
For the molecule `N#CCCN(CCC#N)c1ccc(C=Nc2ccc(F)cc2)cc1`, the concentration for total growth inhibition (TGI) was above 100 µM.
Take `NC(Cc1ccccc1CP(=O)(O)O)C(=O)O` (stereo not drawn): the TGI is above 100 µM.
For the molecule `OCC#Cc1ccccc1C#Cc1ccc(C#Cc2ccccc2)cc1`, the GI50 is 18.9 µM and the TGI came out at 39.9 µM.
`COc1ccc2c(c1)CC[C@@H]1C2CC[C@]2(C)C(=C=CP(=O)(O)O)CCC12` (stereo partly drawn) gave a TGI above 100 µM.
On the same count and under the same terms, to `N#Cc1c(N)nc(Sc2ccccc2N)c(C#N)c1-c1ccccc1` belongs above 100 µM; to `COc1ccc(/C(CC2OC(=O)c3ccccc32)=N\NC(N)=O)cc1` (stereo not drawn), above 100 µM.
On to `O=c1nc2[nH]c3c(-c4n[nH]c(=O)[nH]c4=O)cccc3c2n[nH]1`, for which the GI50 is above 100 µM and the TGI was above 100 µM.
Take `COc1ccc(N=Nc2c(N)nn3c(SC)c(C#N)c(N)nc23)cc1`: the TGI came out at 28.8 µM.
For the molecule `CCC(=C/[C@H](C)C/C=C/C(C)=C/[C@@H](C)C(=O)[C@@H](C)[C@H](O)[C@@H](C)CC)/C=C/[C@H]1CC=CC(=O)O1`, the concentration for total growth inhibition (TGI) was 12 µM and 13.1 µM.
As for `C#Cc1cccc(NC(=O)C2CCCN(C(=O)CCl)C2)c1` (stereo not drawn), the GI50 was above 82.5 µM and the TGI is above 82.5 µM.
On to `CCC1CN2CCc3c([nH]c4ccccc34)[C@@](C(=O)OC)(c3cc4c(cc3OC)N(C)C3C(O)(C(=O)OC)C(C(=O)OC)C5(CC)C=CCN6CCC43C65)C[C@@H](C2)[C@@H]1C(C)(C)C` (stereo partly drawn), for which the TGI was above 10 µM.
Consider `O=C(OC[C@@H]1CO1)c1cccc2c(=O)c3ccccc3[nH]c12`, for which the GI50 is 1.66 µM and the TGI amounted to 6.4 µM.
On to `COC(=O)c1sc(=NC(=S)N2CCCCC2)sc1C(=O)OC`, for which the TGI is above 100 µM.
Molecule `C(=C\c1c2oc(-c3ccccc3)cc(-c3ccccc3)c-2c2ccccc12)/C=C1\c2ccccc2-c2c(-c3ccccc3)cc(-c3ccccc3)[o+]c21` yielded a total growth inhibition concentration (TGI) above 100 µM.
The same measure, in the same setting: to `COc1cc(/C=C2/Oc3c(OC)cccc3C2=O)ccc1O` belongs above 100 µM.
Still for that read-out and setting: to `C[C@]12CCC3=NCCN3C1=CC[C@@H]1[C@@H]2CC[C@@]2(C)[C@H]1CC[C@]2(C)O` belongs above 100 µM.
Turning to `CC1CCCN1CCCOC(=O)c1ccc(OC2C=CCCC2)cc1` (stereo not drawn), the total growth inhibition concentration (TGI) was above 100 µM.
Still for that read-out and setting: to `COC(=O)C1CCC(=O)N1/C(C)=N/NC(=O)Nc1ccc(Cl)c(Cl)c1` (stereo not drawn) belongs above 100 µM.
Consider `N#CCC1(n2cc(-c3ncnc4[nH]ccc34)cn2)CN(C2CCN(C(=O)c3ccnc(C(F)(F)F)c3F)CC2)C1`, for which the GI50 is above 100 µM and the concentration for total growth inhibition (TGI) was above 100 µM.
For the molecule `Cn1c(NC(=O)NC23CC4CC(CC(C4)C2)C3)nc2ccccc21`, the TGI is above 100 µM.
The same measure, in the same setting: to `O=C(/C(=C/c1ccc(O)cc1)c1ccccc1)c1ccccc1` belongs 34.7 µM.
Still for that read-out and setting: the value for `Nc1ncnc2c1nc(Cl)n2C1OC(CO)C(O)C1O` (stereo not drawn) was above 100 µM; that for `C=CCNC1=C2C[C@@H](C)C[C@@H](OC)[C@H](OC(=O)CCN(C)C)[C@H](C)/C=C(\C)[C@@H](OC(N)=O)[C@H](OC)/C=C\C=C(/C)C(=O)NC(=CC1=O)C2=O` was 21.5 µM.
Regarding `CC1OC(OC2C(O[C@H]3CC[C@@]4(C)C(=CC[C@H]5[C@@H]6C[C@@H]7O[C@]8(CC[C@@H](C)CO8)[C@@H](C)[C@@H]7[C@@]6(C)CC[C@@H]54)C3)OC(CO)C(OC3OC(CO)C(O)C3O)C2O)C(O)C(O)C1O` (stereo partly drawn), the GI50 was 0.59 µM; the TGI was 2.11 µM and 1.8 µM.
In the case of `Clc1cc2ncn(C3CCCCO3)c2cc1Cl` (stereo not drawn), the TGI is above 100 µM.
`Cc1ccc(C2=C(Cl)C(=O)C(c3ccc(C)cc3)=C(Cl)C2=O)cc1` showed a TGI above 100 µM.
Molecule `CC(=O)[C@]1(O)Cc2c(O)c3c(c(O)c2[C@@H](OC2CC(N)C(O)C(C)O2)C1)C(=O)c1c(OCc2ccccc2)cccc1C3=O` (stereo partly drawn) yielded a TGI of 8.22 µM.
In turn, `N#CC(NNC(=O)c1ccccc1O)c1c(O)ccc2ccccc12` (stereo not drawn) came in with a total growth inhibition concentration (TGI) above 83.3 µM.
Still for that read-out and setting: to `NC(N)=NCCCC(NC(=O)c1c2ccccc2nc2ccccc12)C(=O)O` (stereo not drawn) belongs above 100 µM.
On the same count and under the same terms, the value for `NNC(=O)N/N=C1\CN(c2ccc(Cl)cc2Cl)C(=O)C(=O)C1c1nc2ccccc2o1` (stereo not drawn) was above 100 µM.
Take `O=C1CCS/C(=N/S(=O)(=O)c2ccc(N3N=C4c5ccccc5CC4C3c3cccs3)cc2)N1Cc1ccccc1` (stereo not drawn): the GI50 was 12.8 µM and the TGI is 31.2 µM.
In turn, `O=C1c2ccccc2C(=O)c2sc(Nc3cc(Cl)ccc3Cl)nc21` displayed a TGI of 29.8 µM.
In the case of `CC(C)(C)OC(=O)NC(Cc1ccc(OCc2ccccc2)cc1)C(=O)NC(CCCCNC(=O)OCc1ccccc1)C(=O)NC(CCCCNC(=O)OCc1ccccc1)C(=O)ON1C(=O)CCC1=O` (stereo not drawn) (Boc-Tyr(Bn)-Lys(Cbz)-Lys(Cbz)-OSu; configuration not given here), the TGI is above 100 µM.
`COc1ccc(OC)c2c(=O)c3ccccc3[nH]c12`: the total growth inhibition concentration (TGI) is above 100 µM.
The same measure, in the same setting: to `CC(CC=O)Nc1nn2c(=O)c3ccccc3nc2s1` (stereo not drawn) belongs above 100 µM.
Regarding `COc1ccc(Cc2nc3cc(OC)c(OC)cc3c(=O)[nH]2)cc1`, the GI50 was 3.97 µM and the TGI stood at 32.6 µM.
Turning to `CC1(C)CC[C@]2(C(=O)O)CC[C@]3(C)C(=CC[C@@H]4[C@@]5(C)C/C(=C/c6ccco6)C(=O)C(C)(C)[C@@H]5CC[C@]43C)[C@@H]2C1`, the GI50 was 3.31 µM and the TGI amounted to 21.9 µM.
On to `Cc1ccc2nc(C(=O)O)c(=O)[nH]c2c1`, for which the TGI is above 100 µM.
For `O=C(/C=C(\[O-])c1ccccc1)CCCCCCC(=O)/C=C(\[O-])c1ccccc1.O=C(/C=C(\[O-])c1ccccc1)CCCCCCC(=O)/C=C(\[O-])c1ccccc1.O=C(/C=C(\[O-])c1ccccc1)CCCCCCC(=O)/C=C(\[O-])c1ccccc1.[Nd+3].[Nd+3]`, the GI50 is above 50 µM and the total growth inhibition concentration (TGI) was above 50 µM.

The values above are taken from PubChem BioAssay (NCI).
